# The other results are listed elsewhere or left out. The energies were worked out here from pooled read counts, against the library average; single values are noisy.
# Biological target: T1, Pho4 (S. cerevisiae) (UniProt P07270)
# T1 sequence: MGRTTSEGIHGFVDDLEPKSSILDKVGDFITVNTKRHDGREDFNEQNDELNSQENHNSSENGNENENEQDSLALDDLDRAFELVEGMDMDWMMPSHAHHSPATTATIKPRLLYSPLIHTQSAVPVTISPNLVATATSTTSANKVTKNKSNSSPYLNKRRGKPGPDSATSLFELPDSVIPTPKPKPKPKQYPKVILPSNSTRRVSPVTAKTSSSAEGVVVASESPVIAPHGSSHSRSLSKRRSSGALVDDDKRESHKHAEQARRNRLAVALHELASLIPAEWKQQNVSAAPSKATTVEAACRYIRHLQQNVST
# Test: relative binding free energy (BET-seq); higher = weaker binding
# Conditions: reference: library average
row,Sequence,relative binding free energy [kcal/mol]
1,GTGGTCACGTGTCGGC,0.12
2,CGTGACACGTGTTTTG,0.07
3,GCCAGCACGTGGGGGG,-0.35
4,TAAAGCACGTGGTGGG,-0.06
5,TTCTTCACGTGGATAG,0.37
6,CGTGTCACGTGCTTAT,0.17
7,ATCGACACGTGGGTAG,-0.13
8,TGGTCCACGTGAATAG,0.3
9,ATATGCACGTGAGAGA,0.27
10,TTACACACGTGGGGGA,-0.07
11,TGTGACACGTGGGTAG,-0.07
12,ATATTCACGTGGGGAA,0.04
13,CGAGTCACGTGTCGGT,0.2
14,GTTTGCACGTGGGATC,-0.04
15,TCTTTCACGTGATAGG,0.23
16,TAAGGCACGTGCGGGG,-0.3
17,CTAGGCACGTGTTCGT,-0.09
18,TTTAGCACGTGTGTCG,0.01
19,TAACACACGTGGATGT,0.22
20,TTCTTCACGTGTGGCG,0.2
21,TGGGCCACGTGGGTGC,-0.18
22,GGGCACACGTGAGGCG,0.36
23,TCGTCCACGTGTTGGT,0.07

row,Sequence,relative binding free energy [kcal/mol]
1,CATGTCACGTGAAGTT,0.43
2,TTAAACACGTGTTATA,-0.08
3,AATGGCACGTGGGTAT,-0.22
4,GGTTTCACGTGAAGAT,0.53
5,TTATTCACGTGAGTAT,0.36
6,GAGTGCACGTGGAGGC,-0.02
7,GGATCCACGTGGTTGG,-0.09
8,GTCTTCACGTGGGAGG,0.26
9,GGCTGCACGTGCGGGT,-0.09
10,AATTTCACGTGGTAAG,0.19
11,GTTTTCACGTGACAGT,0.36
12,CAAGGCACGTGCTGGG,-0.05
13,TACGCCACGTGTGTGG,-0.07
14,GAGGACACGTGATTTA,0.18
15,ACGGGCACGTGTATAT,-0.06
16,TAAGGCACGTGGGTGC,-0.25
17,GGTTGCACGTGGTGGG,0.09
18,ATTTTCACGTGTTGGG,0.24
19,GATGTCACGTGTGTCG,0.21
20,TACATCACGTGGAGGG,0.13
21,TGCATCACGTGCGGGT,-0.07
22,TATTGCACGTGGAAAT,0.19
23,GTAATCACGTGAATTG,0.2

row,Sequence,relative binding free energy [kcal/mol]
1,AAAGGCACGTGGATTG,-0.03
2,GGGTGCACGTGAGGTG,0.21
3,TTGAGCACGTGTGTAA,-0.08
4,AGAAGCACGTGCGGTT,-0.05
5,ATTTGCACGTGATATG,-0.07
6,AGGGGCACGTGTATAA,-0.13
7,GTAGTCACGTGAGTCT,0.28
8,TGCGGCACGTGGGGCC,-0.27
9,GGTTACACGTGTTAGA,0.2
10,ACTTGCACGTGGGCGT,-0.16
11,TATGTCACGTGTGGAT,0.28
12,GTGGACACGTGGCTTT,0
13,GTGTTCACGTGCTGGA,0.06
14,TTTTGCACGTGTAATT,0.02
15,AGGAGCACGTGATATT,0.13
16,GTCGTCACGTGAGGTC,0.4
17,CGCGGCACGTGTTGGG,-0.05
18,GTCTTCACGTGGGGCA,0.16
19,TTTGTCACGTGGTACA,0.03
20,GGATACACGTGCTGGG,-0.08
21,CGGAGCACGTGATTTG,0.08
22,GCGGGCACGTGATTTT,0.02
23,ATTATCACGTGGTTTA,0.01

row,Sequence,relative binding free energy [kcal/mol]
1,GAGGGCACGTGTTTGG,0.06
2,GTGGGCACGTGTGTAG,-0.03
3,AGTTACACGTGGTGGC,0.03
4,CAGTGCACGTGTTTAT,0.04
5,GCGGACACGTGTTGGA,0.09
6,GGTGTCACGTGCGTTG,-0.02
7,TAATTCACGTGGGTAT,0.23
8,GTTAGCACGTGGGGGG,-0.08
9,GTGTGCACGTGGGCGA,-0.15
10,TTGGTCACGTGATAGC,0.38
11,TGGTCCACGTGGTCTT,0.03
12,TGGGACACGTGGGCTC,-0.2
13,ATGTGCACGTGGATCG,-0.06
14,TCATGCACGTGGTGGC,-0.17
15,GGTGCCACGTGGGTGT,-0.15
16,GGGATCACGTGGGGGG,0.09
17,TCTGGCACGTGCAGTT,-0.02
18,TGGTGCACGTGGTTTT,0.05
19,ATATTCACGTGATGGT,0.39
20,TCGGTCACGTGCGGTT,0.2
21,CTTATCACGTGAGTTG,0.32
22,AGCGGCACGTGAGTTT,-0.02
23,TCTGGCACGTGTAAGT,0.16

row,Sequence,relative binding free energy [kcal/mol]
1,GTTATCACGTGTTGAC,0.39
2,GATAGCACGTGGTGGG,-0.06
3,TTTTGCACGTGATCCT,0.13
4,TCGATCACGTGGTGGT,0.18
5,GGCATCACGTGGGGTA,0.08
6,AGTTACACGTGATGTG,0.11
7,CGAGTCACGTGGATGT,0.16
8,TTATTCACGTGGGAGA,0.21
9,ACTGGCACGTGCAGTG,-0.04
10,TTACTCACGTGGTCGG,0.14
11,AGGTCCACGTGTGTAT,0.09
12,GGGAACACGTGGAGAT,0.14
13,AATTACACGTGGAATA,0.37
14,TGTTTCACGTGAGATC,0.37
15,AATCTCACGTGGAGGG,0.1
16,TAAGCCACGTGGGGTT,-0.2
17,ATATTCACGTGTTGAT,0.28
18,TGCTTCACGTGCTGGT,0.29
19,TTCTGCACGTGAGGTA,0.32
20,GGCCGCACGTGTTGTT,-0.02
21,GGAGCCACGTGTGGCG,0.07
22,CGTTTCACGTGTTGAA,0.24
23,ATGTGCACGTGGACGG,-0.26

# — the BET-seq Pho4 binding data (Le et al. 2018)
